# According to ChEMBL document CHEMBL4888484, “Replenishing the malaria drug discovery pipeline: Screening and hit evaluation of the MMV Hit Generation Library 1 (HGL1) against asexual blood stage Plasmodium falciparum ,using a nano luciferase reporter read-out” (2022):
# The campaign covered roughly 150,000 compounds. About 540 (0.36%) showed an effect of 50% or more. The list shows a part of the results.
# Test system: Plasmodium falciparum
# Assay: Primary screen in NF54 nanoGlo assay, in single point, at 2uM, 72h; a lower Z score goes with more inhibition
# Type: functional, Erythrocyte
# Conditions: timepoint 72 hour
SMILES,% Inhibition,Z score
CCC(CC)C(=O)N1CCC2(CCCN(C)[C@@H]2C(=O)N2CCCC2)CC1,2%,-0.41
CC(C)c1nnc(Cn2nc(C(N)=O)nc2Cc2ccccc2)s1,-7%,1.27
Cc1nc(-c2cc(S(=O)(=O)N3CCC(C(=O)N4CCC(C)CC4)CC3)c(C)s2)no1,-22%,1.9
Cc1nc(C(=O)NCc2oc3ccc(F)cc3c2C)c(=O)[nH]c1C,-7%,1.47
COc1ccc(CN2CCN(C3CCN(C(C)=O)CC3)C[C@@H]2CCO)c(C)c1C,-24%,2.89
COc1cc([C@H](C)NC(=O)N(C)Cc2nnc[nH]2)cc2ccccc12,-10%,0.98
O=C(Cn1nc(-c2ccc3c(c2)OCCO3)ccc1=O)NCc1ccc2c(c1)OCO2,1%,-0.09
COc1ccc(-c2nc(C)nc3c2cnn3C)c(OC)c1OC,2%,-0.33
CO[C@@H](C)c1nc(C)c(C(=O)Nc2nc(-c3ccc(C)s3)c(C)s2)s1,12%,-1.76
CN(CC1(N(C)C)CCC1)C(=O)c1nc2c(s1)CCC2,-8%,1.43
O=C1[C@@H](Nc2ncccn2)CCN1c1ccc(Cl)c(F)c1,-11%,1.1
NC(=O)CC[C@@H]1N[C@]2(C(=O)Nc3ccccc32)[C@@H]2C(=O)N(c3ccccc3C(F)(F)F)C(=O)[C@H]12,-5%,0.57
O=C(CC1(C(=O)O)Cc2ccccc2C1)Nc1ccc2c(c1)CCC2,-6%,0.6
Cc1cnc(NCc2cnn3c2CCCC3)nc1,-6%,0.85
COCCc1nc(C)c([C@H](C)Nc2ccc3c(c2)CCC(=O)N3)s1,-15%,1.74
Cn1cc(-c2nn(C)cc2C(=O)NC2CCC(C(F)F)CC2)cn1 (stereo not drawn),-9%,1.18
CCOc1ccc(NC(=O)[C@H](C)OC(=O)c2cccc(Cl)c2)c(NC(=O)c2cccc(Cl)c2)c1,8%,-0.95
O=C(c1n[nH]cc1Cl)N1CCC[C@H](c2[nH]ncc2-c2ccc(F)cc2)C1,-10%,1.97
O=S(=O)(c1cccc2nsnc12)N1CC(N2CCCC2)C1,-21%,2.4
Cn1cc(CN2CCN(c3cccc(Cl)c3)CC2)c(-c2ccc3c(c2)OCCO3)n1,-11%,1.14
CNC(=O)c1nc(/C=C/C2CCCCC2)n[nH]1,3%,-0.37
CC(C)c1ccc(N[C@@H](C)CN2CCOCC2)nn1,-1%,0.16
Cc1n[nH]c(=O)nc1Nc1ccc2c(c1)OCCO2,-6%,0.75
CC[C@@H](C)[C@H](NC(=O)N(CC)c1ccccc1)C(=O)O,8%,-1.02
Cc1noc2nc(C3CC3)cc(C(=O)NC3CCN4CCCCC34)c12 (stereo not drawn),6%,-0.91
Cc1cc(-c2noc(CNC(=O)c3scnc3C)n2)no1,10%,-1.29
CCNC(=O)C1Cc2cc(C(F)(F)F)ccc2N2CCN(Cc3ccc(F)cc3)CC12 (stereo not drawn),3%,-0.31

SMILES,% Inhibition,Z score
Cc1cc(Br)cc(C(=O)NC[C@@H](C)CCO)c1,-7%,0.67
Cc1cc(CN(C)C(=O)c2cn(C(C)C)nn2)no1,-9%,1.14
Cc1nc2ccccc2c(=O)n1-n1c(-c2ccccc2)cc(C(F)(F)F)c(C#N)c1=O,2%,-0.3
C[C@H]1CCN(Cc2ccncc2)CCN1Cc1ccccc1,-16%,3.16
Oc1ccc(CN(Cc2ccco2)c2nc3ccccc3o2)cc1,35%,-3.93
CN(CCCS(C)(=O)=O)Cc1cc(F)c(F)cc1F,-13%,1.47
O=C(c1nnc(C(=O)N2CCCCC2)nn1)N1CCCCC1,4%,-0.48
CC1CC(C)CN(C(=O)C2CCN(c3ncnc4c3nc3n4CCCCC3)CC2)C1 (stereo not drawn),-5%,0.81
CC1(C)C(=O)OCCN1S(=O)(=O)c1ccc(Cl)cc1,-4%,0.54
Cc1ccc(NC(=O)[C@H](C(C)C)N2CCCS2(=O)=O)c(F)c1Cl,-9%,1.72
O=C(Nc1ccccc1N1CCCC1=O)c1cc2cc(Cl)ccn2n1,-7%,0.74
Cc1csc(S(=O)(=O)N2CCCc3ncccc32)c1,-8%,1.37
CN1C[C@@H](Cn2cc(Br)cn2)CC1=O,-15%,1.69
COC(=O)c1[nH]c(C)cc1NC(=O)c1nc(C(C)C)cs1,-16%,3.1
Cc1ccc(N2CCOC2=O)c(C2=CCCCC2)c1,-5%,0.7
Cc1nnc(N2CCC[C@H](c3nc(N(C)C)no3)C2)c(C#N)c1C,-17%,2.65
CN(Cc1ccn(C)n1)C(=O)c1cc(S(=O)(=O)N(C)C)c(Cl)cc1Cl,30%,-0.7
O=C(C1=CCCCC1)N(CC1CCN(C2Cc3ccccc3C2)CC1)C[C@H]1CCCO1,-12%,1.58
Cc1cc(-n2nnc3ccccc32)nc(C)n1,35%,-0.8
O=C1NC2(CCCCCCC2)C(=O)N1Cc1nc(-c2ccco2)no1,-9%,1.5
COc1ccc(CCNC(=O)CN2CCn3nc(C#N)cc3C2)cc1,-2%,0.41
O=C(Cn1c(=O)n(Cc2ccc3c(c2)OCO3)c(=O)c2sccc21)NCc1ccccc1,-15%,2.85
O=C(NCCCc1ccco1)N1CCCC[C@@H]1CN1CCCC1,-11%,1.78
COc1ccc(N2C(=O)N(Cc3cccc(F)c3)S(=O)(=O)c3cccnc32)cc1,-4%,0.65
COC1CN(c2nnc(C3CC3)s2)C1,-16%,1.87
Nc1cc(Cl)ccc1OCC(F)(F)F,-2%,0.42
O=C(CC1CCCCC1)Nc1ccccn1,4%,-0.41
